Several values for one entry are separate records, joined by “and”; a condition that tells them apart may be missing. Equal entries are not always repeated. The whole screen tested about 360,000 compounds, of which about 6,000 (1.7%) were called active. Inconclusive results, whose numbers are uncertain, are shown with a selection of clear calls. Calls follow the shape of the dose curve; as a rule, active = well fitted cell-killing curve with a large enough effect; inconclusive = small, poorly fitted or top-dose-only effect, or effect the other way; inactive = flat fitted curve, though single readings scatter. Potencies beside an inconclusive call are fits to weak or partial responses and may not hold up.
Experiment: qHTS for induction of synthetic lethality in tumor cells producing 2HG: qHTS for the HT-1080-NT fibrosarcoma cell line;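 also: NT is the 2HG producing partner of a matched IDH1 knockdown line; nearly all actives have a fitted effect of over 55% in size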;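 as to activity, negative = less viability: 0% = DMSO-treated cells and -100% = media-only wells without cells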
Conditions: HT-1080-NT fibrosarcoma viability, CellTiter-Glo ATP luminescence, 48 h; activity, negative = less viability: at 46.1 µM (top of the series)
Summary of the method: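 Luminescent CellTiter-Glo readout after 48 hours of compound exposure at 37 degrees C defined viability of HT-1080-NT cells. Activity was normalized to DMSO wells and cell-free media wells; concentration-response curves were fitted and assigned curve classes.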
For `O=C(COc1ccc(Cl)cc1)N1CCN(Cc2ccc([N+](=O)[O-])cc2)CC1`, the Potency was “inactive”. In the case of `COc1ccc(CNCCc2c[nH]c3ccccc23)c(OC)c1C`, the Potency is reported as inconclusive: 32.6 µM [cytotoxic, single point]. With `CC(C)c1ccc(C2N3CCCN23)cc1` (centres undefined) the Potency was “inactive”. For `C=C1C(=O)O[C@@H]2C[C@@H](C)[C@@H]3C=CC(=O)[C@@]3(C)[C@@H](OC(=O)CC(=O)O[C@H]3[C@@H]4C(=C)C(=O)O[C@@H]4C[C@@H](C)[C@@H]4C=CC(=O)[C@]43C)[C@H]12`, the Potency was inconclusive: 0.231 µM [cytotoxic, full curve, poor fit]. For `O=C1C(=O)c2ccccc2-c2ccccc21`, the Potency was active: 0.92 µM. In the case of `CCCCCCCCN1C(=O)[C@H](CC(=O)N2CCCCC2)C[C@@]2(C(=O)OCC)CCCC=C12`, the Potency is reported as inconclusive: 29.1 µM [cytotoxic, single point]. With `Oc1cc2c(cc1CN1CCN(c3ccccc3F)CC1)OCO2` the Potency was “inactive”. With `CCC(C)C1NC(=O)C2CCCN2C(=O)C(CC(C)C)OC(=O)CCNC(=O)C(C)N(C)C(=O)C(C(C)C)N(C)C1=O` (centres undefined) the Potency was active: 18.4 µM. With `COC(=O)C1C(O)CC2CCC1N2C` (centres undefined) the Potency was inconclusive: 0.326 µM [rising, full curve, poor fit]. For `CCC(=O)[C@@H](C)[C@@H](O)[C@H](C)C[C@@H](C)C1OC(=O)C[C@@]2(O)CC=C(C)C(O2)C(C)=CCCC[C@H](O[C@H]2C[C@@H](OC(N)=O)[C@H](O)[C@@H](C)O2)C=C[C@H](C)C[C@H]1C` (some centres undefined), the Potency was active: 11.6 µM. With `Cc1cc(NC(=O)CCl)on1` the Potency was inconclusive: 29.1 µM [cytotoxic, single point]. For `CCC(COC(=O)c1cc(OC)c(OC)c(OC)c1)(c1ccccc1)N(C)C` (centres undefined), the Potency was inconclusive: 14.6 µM [cytotoxic, partial curve] and inconclusive: 20.6 µM [cytotoxic, partial curve, poor fit]. For `COc1ccc2c(c1OC)C(=O)OC2c1c(O)n(C2CCCCC2)c(=O)[nH]c1=O` (centres undefined), the Potency was “inactive”. In the case of `O=c1[nH]cc(F)c(=O)[nH]1`, the Potency is reported as inconclusive: 2.31 µM [cytotoxic, full curve, poor fit]. For `COc1ccc(-n2nnnc2C(c2ccccc2)N2CCC3(CC2)C(=O)NCN3c2ccccc2)cc1` (centres undefined), the Potency was inconclusive: 29.1 µM [cytotoxic, single point]. In the case of `O=C(c1cc2nc(-c3ccccc3)cc(-c3ccccc3)n2n1)N1CCC2(CC1)OCCO2`, the Potency is reported as inconclusive: 29.1 µM [cytotoxic, single point]. In the case of `COc1ccc2c3c1OC1C(=O)CC[C@@]4(O)[C@@H](C2)N(C)CC[C@]314` (some centres undefined), the Potency is reported as inconclusive: 29.1 µM [cytotoxic, single point]. With `CCCC[C@@H](C)C[C@@H](C)C(=O)N(C)[C@@H](CC(C)C)C(=O)N[C@H](C(=O)N(C)[C@H](C(=O)N1C[C@@H](O)C[C@H]1C(=O)N1C(=O)C=C[C@@H]1C)C(C)C)C(C)OC(C)=O` (some centres undefined) the Potency was active: 0.0291 µM. In the case of `O=C1NC(=O)C(=Cc2ccccc2OCCOc2ccc([N+](=O)[O-])cc2)C(=O)N1`, the Potency is reported as inconclusive: 16.4 µM [cytotoxic, single point]. In the case of `COc1ccc(/C=C2/C(=O)N(Cc3ccco3)C(=O)N(C(C)C)C2=O)cc1`, the Potency is reported as “inactive”. With `COCCCNC(=O)c1c(NC(=O)c2ccco2)n(Cc2ccccc2)c2nc3ccccc3nc12` the Potency was inconclusive: 29.1 µM [cytotoxic, single point]. For `O=C1NC(=O)N(CCc2ccc(F)cc2)C(=O)/C1=C/c1cccs1`, the Potency was inconclusive: 29.1 µM [cytotoxic, single point]. With `COC(=O)C1=C(C)NC(C)=C(C(=O)OC)C1c1ccccc1[N+](=O)[O-]` the Potency was inconclusive: 5.17 µM [cytotoxic, full curve]. In the case of `CC(C)c1oc(=O)cc2c1[C@@H](O)[C@H]1OC(=O)[C@@]3(C)C[C@@H](O)[C@@H](O)[C@@]2(C)C13` (some centres undefined), the Potency is reported as inconclusive: 7.31 µM [cytotoxic, partial curve]. In the case of `COc1cc(C(C#N)N2CCOCC2)ccc1O` (centres undefined), the Potency is reported as inconclusive: 20.6 µM [rising, single point]. In the case of `CCCCn1c(N)c(C(=O)NCc2cccs2)c2nc3ccccc3nc21`, the Potency is reported as inconclusive: 35.5 µM [cytotoxic, single point]. In the case of `Nc1c(C(=O)NCc2ccco2)c2nc3ccccc3nc2n1Cc1ccc(F)cc1`, the Potency is reported as active: 16.4 µM. With `Oc1c(Cl)c(Cl)c(Cl)c(Cl)c1Cl` the Potency was inconclusive: 29.1 µM [cytotoxic, single point]. With `CC(=O)OC1CC[C@]2(C#N)[C@H]3CC[C@]4(C)[C@H](C5C=CC(=O)O5)CCC4(O)C3CCC2(O)C1` (some centres undefined) the Potency was active: 25.9 µM. For `CCOC(=O)C1(CCc2ccccc2)CCN(Cc2ccc(NC(C)=O)cc2)CC1`, the Potency was “inactive”. With `CCN(CC)C(=O)c1cccc(-c2csc(C(C)(O)c3ccccc3)n2)c1` (centres undefined) the Potency was inconclusive: 32.6 µM [cytotoxic, partial curve]. For `c1ccc(Cc2nn3c(Cn4cnc5ccccc54)nnc3s2)cc1`, the Potency was inconclusive: 7.94 µM [cytotoxic, partial curve]. For `COc1ccc(-n2nnnc2C(c2ccccc2OC(F)(F)F)N2CCC3(CC2)C(=O)NCN3c2ccccc2)cc1` (centres undefined), the Potency was inconclusive: 18.4 µM [cytotoxic, single point]. In the case of `COc1ccc(NC(=O)C2C3CCC(O3)C2C(=O)O)c(OC)c1` (centres undefined), the Potency is reported as inconclusive: 9.2 µM [cytotoxic, partial curve]. For `COc1ccc(C[C@H]2NC[C@H](O)[C@H]2OC(C)=O)cc1`, the Potency was active: 0.0461 µM. With `COc1ccc2c(c1)/C(=C/c1cnc[nH]1)C(=O)N2` the activity, negative = less viability was inconclusive: -79.6%. In the case of `O=c1[nH]c2ccccc2n1C1CCN(C(c2nnnn2Cc2ccccc2)C2CC2)CC1` (centres undefined), the Potency is reported as inconclusive: 14.6 µM [cytotoxic, single point]. For `COC(=O)C1=C(c2ccc(Cl)c(C(F)(F)F)c2)C[C@@H]2CC[C@H]1N2C(=O)NCCOc1ccccc1`, the Potency was inconclusive: 29.1 µM [cytotoxic, single point]. For `CN1CCC(N(C)c2nc(-c3ccccc3)nc3ccccc23)CC1`, the Potency was active: 15.8 µM.
Potency is read from the fitted curve at half-maximal effect; tags tell the direction and shape of the fitted curve.
